Among all 45,000 compounds or so, about 200 (0.44%) were called active. Another 7% or so got no clear call; they are omitted. The call rests on the fitted dose curve; in most records, active means well fitted activation curve with a large enough effect; inconclusive means small, poorly fitted or top-dose-only effect; inactive means no such curve, though single readings can be large or run the other way. The list shows a part of the results.
assay: qHTS of TDP-43 Inhibitors: NCGC Sytravon Library Screen; conditions: yeast TDP-43 toxicity rescue, BacTiter-Glo growth, 24 h; series mostly up to 46.1 µM; growth rescue (activation): at the top concentration; further: 0% is about no effect; nearly all actives have a fitted effect of over 55% in size
Method in brief: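 TDP-43-expressing yeast, pregrown in raffinose, seeded at OD600 0.02 in galactose medium with compound for 24 hr at 30 deg C. Growth read by BacTiter-Glo luminescence, so rescue of toxicity appears as activation.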

SMILES | growth rescue (activation)
Cc1ccc(-c2nnc(N)s2)cc1 | inactive: 26.1%
Cn1nc([N+](=O)[O-])nc1S(C)(=O)=O | inactive: 21.1%
Cn1c(=O)c2[nH]c(NCC3CCCO3)nc2n(-c2ccccc2)c1=O (stereo not given) | inactive: -10.4%
CCN(CC)C(=O)c1nn(-c2ccccc2)c2c1C1CCC2(C)C1(C)C (stereo not given) | inactive: 4.17%
Cc1ccc(S(=O)(=O)N2CCN(C(=O)CSc3nncs3)CC2)cc1 | inactive: 20.6%
O=C(COc1ccc([N+](=O)[O-])cc1)NNC(=O)c1cccnc1 | inactive: -3.01%
COc1ccc(CNC(=O)C2CCN(S(=O)(=O)c3ccc(-c4nn[nH]n4)cc3)CC2)cc1 | inactive: -21.8%
CCc1onc(C)c1C(=O)O | inactive: 0.261%
CC(C)n1nc(C(=O)NCc2ccc3c(c2)OCO3)c2ccccc2c1=O | inactive: 26.6%
Cc1cc(Cl)ccc1NC(=S)NCCN1CCOCC1 | inactive: 5.77%
CCN(CC)c1c(C)nc2ccc(C(=O)NCc3ccc4c(c3)OCO4)cn12 | inactive: 1.14%
COc1ccc(CCNC(=O)Cn2c(=O)c3sccc3n(CC(=O)Nc3cccc(C(F)(F)F)c3)c2=O)cc1OC | inactive: -6.03%
O=C(Nc1c(Cl)ccc2nsnc12)c1ccco1 | inactive: -13.6%
Cc1c(Br)cccc1NC(=O)c1sccc1-n1cccc1 | inactive: 38.5%
CCc1cccc2c(C(=O)CSc3nnc(-c4ccncc4)n3C)c[nH]c12 | inactive: 1.07%
CCCC(CCC)c1nc2ccncc2[nH]1 | inactive: -5.43%
CCN1CCCC1CNCc1cccc(OC)c1OCc1ccccc1 (stereo not given) | inactive: 5.72%
CCOc1ccc(S(=O)(=O)N2CCC(C(=O)NCc3cccnc3)CC2)cc1C | inactive: 13.2%
N#Cc1c(-c2ccccc2)nc(N2CCN(Cc3ccccc3)CC2)[nH]c1=O | inactive: -5.06%
S=C1NC2(CCCC2)Nc2ccccc21 | inactive: 22.7%
COc1ccccc1NC(=S)N/N=C/c1cccc(C)c1 | inactive: 24.7%
CN(C)c1cccc(CNC(=O)c2csc([C@@H]3C[C@H](O)[C@@H](CO)O3)n2)c1 | inactive: -8.23%

SMILES | growth rescue (activation)
COc1cc(/C=N/N2CCN(C3c4ccccc4-c4ccccc43)CC2)cc(OC)c1O | inactive: 25.6%
COc1ccc(NC(=O)c2cc(-c3cccs3)on2)cc1 | inactive: -6.82%
O=C(NCCN1CCOCC1)/C(=C/c1ccc(Cl)cc1)NC(=O)c1ccccc1 | inactive: 0.747%
O=C(O)CC/C(=C/c1cccc(NC(=O)c2ccccc2Cl)c1)c1nc2ccccc2s1 | inactive: -2.83%
COc1ccc(C2c3ccc(O)cc3Oc3ncn(CCN4CCOCC4)c(=N)c32)cc1OC (stereo not given) | inactive: 9.48%
COc1cccc(C(=O)N(Cc2ccc(N(C)C)cc2)Cc2ccco2)c1 | inactive: 9.25%
NC(=O)c1cccc(-c2ccnc3c2CC(C(=O)NCC2CC2)O3)c1 (stereo not given) | inactive: 16.2%
Cc1oc2cc3oc(=O)c(CC(=O)NCCCC(=O)O)c(C)c3cc2c1C | inactive: 9.81%
COc1cn(-c2ccccc2)nc1C(=O)NCc1ccccc1 | inactive: 2.37%
Cc1ccc(CCN2CC(C(=O)NCc3ccco3)CC2=O)cc1 (stereo not given) | inactive: 4.25%
Cc1ccc2sc(N(CCCN(C)C)C(=O)c3ccco3)nc2c1C | inactive: 3.73%
Cc1ccc(Oc2ccc(OCC(=O)NC3CCS(=O)(=O)C3)cc2)cc1 (stereo not given) | inactive: -1.1%
CCOC(=O)C1=C(C(F)(F)F)Nc2ncnn2C1c1cc(OC)c(OC)cc1OC (stereo not given) | inactive: 14.8%
COC(=O)c1cn(C(=O)/C=C/c2ccc(OC)c(OC)c2)c2ccccc12 | inactive: 6.31%
COc1ccc(C(=O)NCC(=O)NCc2ccncc2)cc1 | inactive: 22.5%
Cc1ccccc1NC(=O)CN1CCC(C(=O)c2ccc3c(c2)OCCO3)CC1 | inactive: 6.82%
O=C(O)c1ccccc1NS(=O)(=O)c1ccc2ccccc2c1 | inactive: -1.34%
Cc1ccccc1NC(=S)N(Cc1ccco1)C(C)c1cccs1 (stereo not given) | inactive: 7.51%
Cc1cccc(-c2nc3cc(NC(=O)c4ccc(OCC(C)C)cc4)ccc3o2)c1 | inactive: 4.87%
Cc1ccn2c(c1)nc(=O)c1cc(S(=O)(=O)N3CCCCC3)ccc12 | inactive: 3.78%
O=C(c1ccccc1)c1c(O)cc(-c2ccccc2)oc1=O | inactive: -20%
O=C(Nc1ccc(S(=O)(=O)N2CCCC2)cc1)c1ccc2c(=O)n3c(nc2c1)CCCCC3 | inactive: 8.31%

SMILES | growth rescue (activation)
O=C(CSc1ccccn1)N1CCNC1=O | inactive: 8.49%
Cn1nnnc1SCC(=O)Nc1cc(S(=O)(=O)N2CCCCC2)ccc1Cl | inactive: -10.5%
COc1ccc(/C=N/Nc2cc(OC)ncn2)cc1 | inactive: 22.6%
CCN(C(=O)COC(=O)/C=C/c1ccc(S(=O)(=O)N2CCc3ccccc32)cc1)C1CCS(=O)(=O)C1 (stereo not given) | inactive: -5.91%
CCN1CCN(C(=O)NCc2ccccc2)CC1 | inactive: -10%
CCOC(=O)c1cccc(NC(=O)c2ccc(-n3cnnn3)cc2)c1 | inactive: 14.6%
O=[N+]([O-])c1ccc(COn2nnc3ccccc32)cc1 | inactive: 18.2%
O=C(CCl)NNC(=O)c1c(O)c2ccccc2[nH]c1=O | inactive: -7.57%
CCOC(=O)Cc1nnc(NC(=O)CSc2nc3ccccc3[nH]2)s1 | inactive: 29.4%
Cc1c(C(=O)N(C)Cc2ccc(OC(F)F)cc2)oc2ccccc12 | inactive: 32%
CN1CCN(C(=O)C2C3C=CC(C3)C2C(=O)O)CC1 (stereo not given) | inactive: 12.9%
COc1ccc([N+](=O)[O-])cc1NC(=O)CCCOc1ccccc1 | inactive: 19.6%
Cc1ccc(S(=O)(=O)N(C)C)cc1NC(=S)N(CCC#N)Cc1cccnc1 | inactive: 0.794%
O=C(CCc1nnc(CCCc2ccccc2)o1)NC(C1CC1)C1CC1 | inactive: 19.6%
CCCc1nc2ccccc2c(C(=O)O)c1CC | inactive: 18.2%
CCc1ccc(NC(=O)Cc2c(C(=O)O)n(C)c3ccccc23)cc1 | inactive: 8.21%
O=c1nc(N2CCCC2)nc(Nc2ccccc2)[nH]1 | inactive: 26.5%
Cn1c(CNC(=O)c2ccccc2F)nnc1SCC(=O)c1ccccc1 | inactive: 17%
CCc1nc2c(OCc3ccc4c(c3)OCO4)cccn2c1N(C=O)Cc1ccccc1 | inactive: -2.89%
Cc1[nH]c2ccccc2c1C(c1ccccn1)N1CCCC1 (stereo not given) | inactive: 2.17%
COC(=O)c1ccc(-n2c(C)cc(C(=O)CSc3ccc(NC(C)=O)cc3)c2C)cc1 | inactive: 1.1%
NC(c1ccc(F)c(F)c1)c1nc(-c2ccc3ccccc3c2)cs1 (stereo not given) | inactive: 0.912%

SMILES | growth rescue (activation)
CC(C)CCN1CCN(C2CCN(c3ccc4c(c3)OCO4)CC2)CC1CCO (stereo not given) | inactive: 6.41%
C/C(=N\NC(=O)c1cc2c(s1)CCC(C)C2)c1cccnc1 (stereo not given) | inactive: 6.18%
O=C(Cc1ccccc1)NNC(=O)C1CCCC1 | inactive: -8.52%
O=C(CNC(=O)c1cccc(Br)c1)N/N=C/c1ccc[nH]1 | inactive: 14.2%
CC(C)c1cccc(C(C)C)c1NC(=O)CN1C(=O)NC2(CCCC2)C1=O | inactive: -0.268%
COc1ccc2c(c1)C(C)=CC(C)(C)N2S(=O)(=O)c1ccc(NC(C)=O)cc1 | inactive: -16.4%
CCN(CC)C(=O)C1CCCN(Cc2nc(-c3cccs3)no2)C1 (stereo not given) | inactive: 13.8%
O=C(CS(=O)(=O)Cc1ccccc1)Nc1nnc(C(F)(F)F)s1 | inactive: 7.42%
O=C(CCN1CCN(Cc2ccccc2)CC1)NNC(=O)Cc1ccc(Cl)c(Cl)c1 | inactive: 2.47%
CC(=O)Nc1cc(C)c2nc(NC(C)=O)sc2c1 | inactive: -0.876%
CN1C(=O)C(=O)/C(=C(/O)c2ccc(Br)cc2)C1c1ccccc1F (stereo not given) | inactive: -9.66%
COC(=O)Nc1ccc(S(=O)(=O)N2CCCCC2C(=O)O)cc1 (stereo not given) | inactive: -5.86%
CCN(CC)S(=O)(=O)c1ccc(OC)c(NC(=O)CSCc2c(C)noc2C)c1 | inactive: -19.6%
CNc1cncc(-c2ccc(S(C)(=O)=O)cc2)n1 | inactive: 5.14%
Cc1ccccc1Cc1c(C)nc2nc(SCC(=O)NCCCN3CCCCC3)nn2c1C | inactive: -4.27%
CN(C)c1ccc(/C=N/NC(=O)C(=O)N2CCCCCC2)cc1 | inactive: 3.12%
O=C(c1cnn(C(=O)COc2ccccc2F)c1)c1cc(F)ccc1O | inactive: -5.34%
COc1ccc(CC2SC(=Nc3ccc(F)cc3)NC2=O)cc1 (stereo not given) | inactive: -5.37%
COc1ccc([N+](=O)[O-])cc1NC(=O)C(C)N1CCCC1 (stereo not given) | inactive: 6.98%
COc1ccc(CC(=O)NNC(=O)c2ccc(Br)s2)cc1OC | inactive: -0.606%
CCCC[N+](CC#Cc1ccccc1)(CCCC)CCCS(=O)(=O)[O-] | inactive: -27%
O=C(COC(=O)c1ccc[nH]c1=O)NC1CCCc2ccccc21 (stereo not given) | inactive: 35.3%

SMILES | growth rescue (activation)
CCN(C(=O)CSc1ncn[nH]1)c1cccc2ccccc12 | inactive: 9.18%
O=C(N/N=C/C=C\c1ccccc1[N+](=O)[O-])c1cc(-c2ccccc2)nc2ccccc12 | inactive: -9.54%
O=C(c1ccccc1)C1CN(Cc2ccccc2)CCC1(O)c1ccccc1 (stereo not given) | inactive: 1.14%
CCOc1ccc2nc(NC(=O)CSc3nc4cccnc4n3C)sc2c1 | inactive: -1.78%
COc1ccc(CCNc2nc3ccc(Cl)cc3n3cnnc23)cc1OC | inactive: -4.01%
COc1ccc(S(=O)(=O)N(Cc2ccccc2)c2ccccc2C(=O)Nc2ccccc2C(=O)NCc2ccco2)cc1 | inactive: 7.09%
COc1ccc(/C=C/C(=O)NCc2cccnc2)cc1 | inactive: 16.3%
CCOC(=O)C1(CC2CCCCO2)CCN(Cc2nc3ccccc3nc2C)CC1 (stereo not given) | inactive: -19.3%
CCC(C)(C)NC(=O)CN(C(=O)CCC(=O)Nc1nccs1)c1ccc2c(c1)OCCO2 | inactive: -16.5%
NNC(=O)c1sc(-c2ccc(Cl)cc2)cc1N | inactive: 6.14%
Cc1ccccc1NC(=O)Cn1c(=O)n(CCCCCC(=O)NCc2ccccc2Cl)c(=O)c2sccc21 | inactive: -6.94%
Cn1c(SCC(=O)O)nnc1-c1ccc(NC(=O)c2ccc(Cl)c(Cl)c2)cc1 | inactive: 25.6%
COc1cc(NC(=O)c2ccc(-c3cnn(C)c3)c3ccoc23)cc(OC)c1OC | inactive: -4.16%
N#Cc1ccccc1S(=O)(=O)N1CCN(S(=O)(=O)c2ccc(Br)c(C(=O)O)c2)CC1 | inactive: 4.2%
CCCS(=O)(=O)NC(=O)C1(C)CCCN(C(=O)c2sccc2C)C1 (stereo not given) | inactive: 2.25%
COCCNC(=O)C1CCCN(Cc2ccc(-c3ccccc3)cc2)CC1 (stereo not given) | inactive: 3.2%
O=C(CN(Cc1ccc(F)cc1)S(=O)(=O)c1ccccc1)N1CCCCC1 | inactive: 16.7%
OC(CNCc1ccc(Cl)c(Cl)c1)c1ccccc1 (stereo not given) | inactive: 4.87%
Nc1c([N+](=O)[O-])c(=O)sc2ccccc12 | inactive: 2.47%
Cc1ccccc1OCC(=O)NCCNC(=O)c1cccnc1 | inactive: 14.9%
CCOc1ccc(-c2[nH]ncc2-c2csc(C)n2)c(O)c1 | inactive: 1.82%
O=C(Cn1nc(C(=O)O)c2ccccc2c1=O)Nc1ccc2c(c1)OCO2 | inactive: 21%

Reference: PubChem BioAssay AID1347073 (National Center for Advancing Translational Sciences (NCATS), 2019)
